Experimental data as given in the supplement of paper PMC12230231.
± gives the standard deviation of the averaged measurements. Restriction of a single-cycle SIVsab GFP reporter by TRIM5α v1-loop variants in CRFK cells. Human variants: read share among cells still uninfected after two challenges over input, higher = gained restriction. Rhesus variants: share among infected cells over input, higher = lost restriction. Reporter dose not given per row. No active / inactive call per row; the paper calls a change when both replicates lie above its controls (mean + 2 SD of stop or wild-type variants, or the top frameshift score). Residues outside the varied loop are taken from Swiss-Prot. The paper reads the human single-substitution scores as noise; they and the rhesus combinations repeat poorly (rank correlation 0.3 to 0.4), indel scores repeat only for the top variants, rhesus substitutions well (0.9).

Each sequence was assayed on SIVsab (simian immunodeficiency virus of sabaeus monkeys), single-cycle GFP reporter, in CRFK cells (assay: enrichment among uninfected cells over input (fold); higher = stronger restriction). Conditions: library: human / rhesus combinations.
Experimental: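 Pools of CRFK cells expressing variants of the TRIM5α v1 loop were challenged with the single-cycle reporter, sorted by GFP and sequenced; mean of two replicates.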

Sequence	enrichment
MASGILVNVKEEVTCPICLELLTQPLSLDCGHSFCQACLTANHKKSMLDKGESSCPVCRISYQPENIRPNRHVANIVEKLREVKLSPEGQKVDHCARHGEKLLLFCQEDGKVICWLCERSQEHRGHHTFLTEEVAREYQVKLQAALEMLRQKQQEAEELEADIREEKASWKTQIQYDKTNVLADFEQLRDILDWEESNELQNLEKEEEDILKSLTNSETEMVQQTQSLRELISDLEHRLQGSVMELLQGVDGVIKRTENVTLKKPETFPKNQRRVFRAPDLKGMLEVFRELTDVRRYWVDVTVAPNNISCAVISEDKRQVSSPKPQIIYGAPGTLFTFQTLVNFNYCTGILGSQSITSGKHYWEVDVSKKTAWILGVCAGFQPDAMCNIEKNENYQPKYGYWVIGLEEGVKCSAFQDSSFHTPSVPFIVPLSVIICPDRVGVFLDYEACTVSFFNITNHGFLIYKFSHCSFSQPVFPYLNPRKCGVPMTLCSPSS [human TRIM5α, 330-340 = GAPGTLFTFQTLV]	0.139 ± 0.17
MASGILVNVKEEVTCPICLELLTQPLSLDCGHSFCQACLTANHKKSMLDKGESSCPVCRISYQPENIRPNRHVANIVEKLREVKLSPEGQKVDHCARHGEKLLLFCQEDGKVICWLCERSQEHRGHHTFLTEEVAREYQVKLQAALEMLRQKQQEAEELEADIREEKASWKTQIQYDKTNVLADFEQLRDILDWEESNELQNLEKEEEDILKSLTNSETEMVQQTQSLRELISDLEHRLQGSVMELLQGVDGVIKRTENVTLKKPETFPKNQRRVFRAPDLKGMLEVFRELTDVRRYWVDVTVAPNNISCAVISEDKRQVSSPKPQIIYQAPGTLYTFPTFTNFNYCTGILGSQSITSGKHYWEVDVSKKTAWILGVCAGFQPDAMCNIEKNENYQPKYGYWVIGLEEGVKCSAFQDSSFHTPSVPFIVPLSVIICPDRVGVFLDYEACTVSFFNITNHGFLIYKFSHCSFSQPVFPYLNPRKCGVPMTLCSPSS [human TRIM5α, 330-340 = QAPGTLYTFPTFT]	0.25 ± 0.19
MASGILVNVKEEVTCPICLELLTQPLSLDCGHSFCQACLTANHKKSMLDKGESSCPVCRISYQPENIRPNRHVANIVEKLREVKLSPEGQKVDHCARHGEKLLLFCQEDGKVICWLCERSQEHRGHHTFLTEEVAREYQVKLQAALEMLRQKQQEAEELEADIREEKASWKTQIQYDKTNVLADFEQLRDILDWEESNELQNLEKEEEDILKSLTNSETEMVQQTQSLRELISDLEHRLQGSVMELLQGVDGVIKRTENVTLKKPETFPKNQRRVFRAPDLKGMLEVFRELTDVRRYWVDVTVAPNNISCAVISEDKRQVSSPKPQIIYQARGTLYTFPTLTNFNYCTGILGSQSITSGKHYWEVDVSKKTAWILGVCAGFQPDAMCNIEKNENYQPKYGYWVIGLEEGVKCSAFQDSSFHTPSVPFIVPLSVIICPDRVGVFLDYEACTVSFFNITNHGFLIYKFSHCSFSQPVFPYLNPRKCGVPMTLCSPSS [human TRIM5α, 330-340 = QARGTLYTFPTLT]	0.253 ± 0.17

Same assay, conditions: library: insertions and deletions

Sequence	enrichment
MASGILVNVKEEVTCPICLELLTQPLSLDCGHSFCQACLTANHKKSMLDKGESSCPVCRISYQPENIRPNRHVANIVEKLREVKLSPEGQKVDHCARHGEKLLLFCQEDGKVICWLCERSQEHRGHHTFLTEEVAREYQVKLQAALEMLRQKQQEAEELEADIREEKASWKTQIQYDKTNVLADFEQLRDILDWEESNELQNLEKEEEDILKSLTNSETEMVQQTQSLRELISDLEHRLQGSVMELLQGVDGVIKRTENVTLKKPETFPKNQRRVFRAPDLKGMLEVFRELTDVRRYWVDVTVAPNNISCAVISEDKRQVSSPKPQIIYGARGTRYQTFVNFNGILGSQSITSGKHYWEVDVSKKTAWILGVCAGFQPDAMCNIEKNENYQPKYGYWVIGLEEGVKCSAFQDSSFHTPSVPFIVPLSVIICPDRVGVFLDYEACTVSFFNITNHGFLIYKFSHCSFSQPVFPYLNPRKCGVPMTLCSPSS [human TRIM5α, 3-codon deletion at 344]	0.394 ± 0.018
MASGILVNVKEEVTCPICLELLTQPLSLDCGHSFCQACLTANHKKSMLDKGESSCPVCRISYQPENIRPNRHVANIVEKLREVKLSPEGQKVDHCARHGEKLLLFCQEDGKVICWLCERSQEHRGHHTFLTEEVAREYQVKLQAALEMLRQKQQEAEELEADIREEKASWKTQIQYDKTNVLADFEQLRDILDWEESNELQNLEKEEEDILKSLTNSETEMVQQTQSLRELISDLEHRLQGSVMELLQGVDGVIKRTENVTLKKPETFPKNQRRVFRAPDLKGMLEVFRELTDVRRYWVDVTVAPNNISCAVISEDKRQVSSPKPQIIYGARGTRYQGARGTRYQTFVNFNYCTGILGSQSITSGKHYWEVDVSKKTAWILGVCAGFQPDAMCNIEKNENYQPKYGYWVIGLEEGVKCSAFQDSSFHTPSVPFIVPLSVIICPDRVGVFLDYEACTVSFFNITNHGFLIYKFSHCSFSQPVFPYLNPRKCGVPMTLCSPSS [human TRIM5α, 8-codon duplication at 330]	0.796 ± 0.65
MASGILVNVKEEVTCPICLELLTQPLSLDCGHSFCQACLTANHKKSMLDKGESSCPVCRISYQPENIRPNRHVANIVEKLREVKLSPEGQKVDHCARHGEKLLLFCQEDGKVICWLCERSQEHRGHHTFLTEEVAREYQVKLQAALEMLRQKQQEAEELEADIREEKASWKTQIQYDKTNVLADFEQLRDILDWEESNELQNLEKEEEDILKSLTNSETEMVQQTQSLRELISDLEHRLQGSVMELLQGVDGVIKRTENVTLKKPETFPKNQRRVFRAPDLKGMLEVFRELTDVRRYWVDVTVAPNNISCAVISEDKRQVSSPKPQIIYGARQTFVNFNYCTGILGSQSITSGKHYWEVDVSKKTAWILGVCAGFQPDAMCNIEKNENYQPKYGYWVIGLEEGVKCSAFQDSSFHTPSVPFIVPLSVIICPDRVGVFLDYEACTVSFFNITNHGFLIYKFSHCSFSQPVFPYLNPRKCGVPMTLCSPSS [human TRIM5α, 4-codon deletion at 333]	1.22 ± 0.15
MASGILVNVKEEVTCPICLELLTQPLSLDCGHSFCQACLTANHKKSMLDKGESSCPVCRISYQPENIRPNRHVANIVEKLREVKLSPEGQKVDHCARHGEKLLLFCQEDGKVICWLCERSQEHRGHHTFLTEEVAREYQVKLQAALEMLRQKQQEAEELEADIREEKASWKTQIQYDKTNVLADFEQLRDILDWEESNELQNLEKEEEDILKSLTNSETEMVQQTQSLRELISDLEHRLQGSVMELLQGVDGVIKRTENVTLKKPETFPKNQRRVFRAPDLKGMLEVFRELTDVRRYWVDVTVAPNNISCAVISEDKRQVSSPKPQIIYGARFVNFNYCTGILGSQSITSGKHYWEVDVSKKTAWILGVCAGFQPDAMCNIEKNENYQPKYGYWVIGLEEGVKCSAFQDSSFHTPSVPFIVPLSVIICPDRVGVFLDYEACTVSFFNITNHGFLIYKFSHCSFSQPVFPYLNPRKCGVPMTLCSPSS [human TRIM5α, 6-codon deletion at 333]	1.72 ± 1.9
MASGILVNVKEEVTCPICLELLTQPLSLDCGHSFCQACLTANHKKSMLDKGESSCPVCRISYQPENIRPNRHVANIVEKLREVKLSPEGQKVDHCARHGEKLLLFCQEDGKVICWLCERSQEHRGHHTFLTEEVAREYQVKLQAALEMLRQKQQEAEELEADIREEKASWKTQIQYDKTNVLADFEQLRDILDWEESNELQNLEKEEEDILKSLTNSETEMVQQTQSLRELISDLEHRLQGSVMELLQGVDGVIKRTENVTLKKPETFPKNQRRVFRAPDLKGMLEVFRELTDVRRYWVDVTVAPNNISCAVISEDKRQVSSPKPQIIYGARGTRIYGARGTRYQTFVNFNYCTGILGSQSITSGKHYWEVDVSKKTAWILGVCAGFQPDAMCNIEKNENYQPKYGYWVIGLEEGVKCSAFQDSSFHTPSVPFIVPLSVIICPDRVGVFLDYEACTVSFFNITNHGFLIYKFSHCSFSQPVFPYLNPRKCGVPMTLCSPSS [human TRIM5α, 8-codon duplication at 328]	0.404 ± 0.059
